Assay results: US20140287419A1, “Compositions Having Dicamba Decarboxylase Activity and Methods of Use” (priority 2013, published 2014)

Assay: 14C assay with IPTG-induced recombinant E. coli cells (14CO2 capture from [14C]-carboxyl-labeled dicamba)
Conditions: for Dicamba Decarboxylase Activity: IPTG-induced recombinant E. coli cells, [14C]-carboxyl-labeled dicamba, 14CO2 capture; for Enzymatic Detection level: dicamba decarboxylation activity of the protein of the given SEQ ID NO

B1: 65 (protein, listed as Ailuropoda melanoleuca)
chain: MAKIDVHSHILPKEWPDLKKRFGYGGWVQLQHHNKGEAKMMKDGKVFRVVQENCWDPEVRIREMDQTGVTVQALSTVPVMFSYWAKPQDTLDLCQLLNNDLAATVANHPRRFVGLGTLPMQAPELAVKEMERCVKELGFPGVQIGSHINEWDLNAKELFPVYAVAEKLNCSLFVHPWDMQMDGRMAKYWLPWLVGMPAETTTAICSMIMGGVFEKFPKLKVCFAHGGGAFPFTVGRISHGFNMRPDLCAQDNPINPKKYLGSFYTDSLVHDPLALKLLTDVIGKDKVILGTDYPFPLGELEPGKLIESMEEFEEETKDKLKAGNALAFLGLERKQFE
With B1 the “Dicamba Decarboxylase Activity” value was “Low” and the “Enzymatic Detection level” value was “Low”.

B2: 66 (protein, listed as Amphimedon queenslandica)
chain: MASGIKVDIHNHILPERWPDLKERYGYGGWIQLHHHCQGKARMLKDGQLFRVVDENCWSPEARIKDMDNTGVTVQALSTVPVMFSYWAKPEDTLDLCKILNNDLAQTVAKFPKRFVGLGTLPMQAPELAVQELKRCIKELGFPGVQIGSHVNEWNLDATELQCVFAAAEELNAAVFVHPWDMETGGRMSKYWLPWLVGMPAETATAICSVLFGGVLERHPNLKICFAHGGGSFPYTIGRIEHGFNVRPDLCATENSVNPRSYIGKVYTDSLVHDQKALKFLVDIIGEDRVVLGSDYPFPLGEHFPGKLIESIEEWDTSLKDKLLSKNAFEFLGLDPSQYET
With B2 the “Dicamba Decarboxylase Activity” value was “Low” and the “Enzymatic Detection level” value was “Low”.

B3: 67 (protein, listed as Amblyomma maculatum)
chain: MASSFSAAANLKIDLHAHVTPDRWPNLRERYGYGGWLDIKHESDKTAVMSYDDGRFFRRIESNCWNIDERIADMDRTGVTVQALSTTPVLFSYWAKPEDALDFSRLQNDFVASLVNRRPDRFVGMCTVPMQSPQLAAEELKRCVSQLGFRAVIVGSHINEWTLADRALDPFYRTVKELGVSIFVHPWDMPPSTRYNKYWLQWLVGMPAETTAAICEVIFGGLLERFPRLKLCFAHGAGSFPYTVGRIQHGFDVRPDLCAVDNKIPPKGYLGEIYADSLVHNRGSLRLLLDTLGEDRVMLGSDYPYPLGEIDRPGRLIETSGLQNSVKEKLLWKKCCELPRN
For B3, the “Dicamba Decarboxylase Activity” value was “Low” and the “Enzymatic Detection level” value was “Low”.
